“And” between values parts separate entries of the source, which are not always exact repeats. Identical values can stand only once. About 4,000 (4.3%) of roughly 94,000 compounds were called active. This list was built around the results that the source calls inconclusive (neither active nor inactive); the mix of calls is not that of the screen. Calls follow the shape of the dose curve; as a rule, active = well fitted inhibition curve with a large enough effect; inconclusive = small, poorly fitted or top-dose-only effect; inactive = no such curve, though single readings can be large or run the other way. Potencies of inconclusive entries are doubtful fits and often do not repeat.
Test: Cytotoxic Profiling in NIH 3T3 Cell Line of Diverse Libraries Using Quantitative High-Throughput Screening; also: nearly all actives have a fitted effect of over 55% in size
Settings: NIH 3T3 viability, CellTiter-Glo ATP luminescence, 48-72 h; series mostly up to 96.7 µM
How it was run: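 NIH 3T3 cells at 400 cells/well received 23 nL of compound by pintool and were incubated 48 or 72 h at 37 °C. Viability was read as ATP-coupled CellTiter-Glo luminescence.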
For `CN1CCc2c([nH]c3ccccc23)C12CCN(C(=O)c1cccs1)CC2`, the Potency was “inactive”.
For `COc1ccc(CC(=O)N[C@@H]2CN(Cc3ccccc3)C[C@H]2CO)cc1`, the Potency was “inactive”.
In the case of `CCc1nc(C)c(C(=O)N2CCC(c3[nH]ncc3-c3ccccc3C)CC2)o1`, the Potency is reported as inconclusive: 44.7 µM [inhibitor, partial curve, poor fit].
In the case of `Cc1ccc(-n2ccnc2-c2cc3n(n2)CCNC3)cc1N1CCCC1=O`, the Potency is reported as “inactive”.
In the case of `CCC1Oc2ccc(NC(=O)Cc3cccs3)cc2CN(Cc2ccc(OC)cc2)C1=O` (stereo unspecified), the Potency is reported as inconclusive: 39.8 µM [inhibitor, partial curve, poor fit].
With `CNC(=O)C1CCN(C(=O)c2ccc(-c3cccs3)cc2)CC1` the Potency was inconclusive: 89.1 µM [inhibitor, partial curve].
For `COc1ccc2c(c1)C(C(=O)N1CCN(c3ccc(C(=O)O)cc3)CC1)=CC(C)(C)CO2`, the Potency was inconclusive: 50.1 µM [inhibitor, partial curve, poor fit].
For `Cn1c(=O)c2ccnn2c2ccc(C(=O)NC3CCCC3)cc21`, the Potency was “inactive”.
With `COc1ccc(-c2cccc(C(=O)N3CCC(NC(=O)c4ccc(F)cc4)CC3)c2)nn1` the Potency was inconclusive: 50.1 µM [inhibitor, partial curve, poor fit].
For `O=c1c2c(n(Cc3cccnc3)n1-c1ccccc1)CN(Cc1ccccc1Cl)CC2`, the Potency was inconclusive: 35.5 µM [inhibitor, partial curve, poor fit].
For `CCc1nc(C)c(C(=O)N2CCOC(CCCC(C)C)C2)o1` (stereo unspecified), the Potency was inconclusive: 31.6 µM [inhibitor, full curve].
With `O=C(O)C[C@@H]1CCN(C(=O)c2cccs2)C[C@@H]1CCN1CCN(c2ccc(F)cc2)CC1` the Potency was “inactive”.
In the case of `Fc1ccc(-c2cc(C3CCNCC3)[nH]n2)cc1`, the Potency is reported as inconclusive: 70.8 µM [inhibitor, single point].
With `c1ccc2ncc(CN3CCC[C@H]3c3nc(-c4ccc(OC5CCCCC5)nc4)no3)cc2c1` the Potency was inconclusive: 39.8 µM [inhibitor, partial curve, poor fit].
With `N#Cc1cccc(-c2c(C(=O)NCc3ccc(Cl)cc3)nc3sccn23)c1` the Potency was active: 35.5 µM.
In the case of `O=C(NC1CCCCCC1)c1nc2sccn2c1-c1ccccc1`, the Potency is reported as inconclusive: 44.7 µM [inhibitor, full curve].
For `Cn1ncc2c(C(=O)NCc3ccc4c(c3)OCO4)cc(-c3ccc(C(F)(F)F)cc3)nc21`, the Potency was inconclusive: 70.8 µM [inhibitor, single point].
With `COc1ncccc1CN1CCCn2nc(C)c(-c3ccccc3C(C)C)c21` the Potency was active: 44.7 µM.
With `CCC1Oc2ccc(NC(=O)C3CCCC3)cc2CN(Cc2ccccc2Cl)C1=O` (stereo unspecified) the Potency was inconclusive: 50.1 µM [inhibitor, single point].
For `Cc1cc2nc3n(c(=O)c2n1CC(=O)Nc1ccc(Br)cc1F)CCCCC3`, the Potency was inconclusive: 31.6 µM [inhibitor, full curve, poor fit].
In the case of `O=C(Cc1cccc(Cl)c1)NC1CCCN(Cc2ccc(-c3cncnc3)cc2)C1` (stereo unspecified), the Potency is reported as inconclusive: 44.7 µM [inhibitor, partial curve, poor fit].
In the case of `Cc1ccc(-c2cn3cc(C(=O)NCCCc4ccccc4)nc3s2)cc1`, the Potency is reported as “inactive”.
For `CSc1ccc(NC(=O)c2ccc3c(c2)N(C)C2CCCCN2C3=O)cc1` (stereo unspecified), the Potency was inconclusive: 50.1 µM [inhibitor, partial curve, poor fit].
For `N#Cc1cccc(CN[C@H]2CO[C@H]3[C@@H]2OC[C@@H]3n2cc(-c3ccccn3)nn2)c1`, the Potency was inconclusive: 100 µM [inhibitor, single point].
In the case of `Cc1ccc2oc(CN3CCCn4nc(C(O)CN(C)C)cc4C3)c(C)c2c1` (stereo unspecified), the Potency is reported as inconclusive: 89.1 µM [inhibitor, partial curve, poor fit].
In the case of `CN(C)Cc1cc(CC2(NCc3ccccc3Cl)COC2)no1`, the Potency is reported as “inactive”.
In the case of `O=C(NCc1ccccc1F)c1nc2sccn2c1Br`, the Potency is reported as inconclusive: 50.1 µM [inhibitor, partial curve, poor fit].
For `COc1ccc(CN2CCC3(CC2)CC(O)CCO3)c(OC)c1` (stereo unspecified), the Potency was inconclusive: 79.4 µM [inhibitor, partial curve, poor fit].
In the case of `O=C(c1ccc(C(F)(F)F)cc1)N1CCC2(CC1)CCN(CCc1ccccc1)c1ccccc1O2`, the Potency is reported as inconclusive: 25.1 µM [inhibitor, full curve, poor fit].
In the case of `O=C(c1ccc(F)cc1)N1CCCC(C(=O)N2CCC(N3CCOC3=O)CC2)C1` (stereo unspecified), the Potency is reported as “inactive”.
In the case of `COCCCN1CC2(CCN(C(=O)c3ccccc3N(C)C)CC2)CC1=O`, the Potency is reported as “inactive”.
With `COc1ccc(C(=O)N2CCC(c3n[nH]c(=O)n3-c3ccc(C)cc3)CC2)c(OC)n1` the Potency was inconclusive: 50.1 µM [inhibitor, partial curve, poor fit].
In the case of `O=C(N[C@@H]1COCC[C@H]1OCc1ccccn1)c1cnc(C2CC2)nc1`, the Potency is reported as “inactive”.
In the case of `CCN(C(=O)Cn1ccn2nc3c(c2c1=O)CCCCC3)c1cccc(C)c1`, the Potency is reported as inconclusive: 50.1 µM [inhibitor, partial curve, poor fit].
With `CC(C)c1cc(C(=O)NCc2cccnc2Oc2cccc(C(F)(F)F)c2)n[nH]1` the Potency was inconclusive: 50.1 µM [inhibitor, partial curve, poor fit].
For `CC(C)(C)c1cnc([C@@H]2COCCN2Cc2ccc(Cl)cc2)[nH]1`, the Potency was inconclusive: 100 µM [inhibitor, single point].
For `C=CCCC(=O)N1C[C@@H](C(=O)OCC)[C@@H]2Oc3cc(OC)ccc3[C@@H]21`, the Potency was inconclusive: 50.1 µM [inhibitor, partial curve, poor fit].
With `COc1ccc(C(=O)NC2CCN(c3cc(-c4ccc(Cl)cc4)[nH]n3)C2)c(C)c1` (stereo unspecified) the Potency was inconclusive: 44.7 µM [inhibitor, partial curve, poor fit].
With `O=C(c1ccc(Cl)cc1)N1CCn2c(nn(-c3ccncc3)c2=O)C1` the Potency was inconclusive: 35.5 µM [inhibitor, partial curve].
For `COc1cc(F)ccc1-c1cc2c(nc1OC)nc(CC1CC1)n2C`, the Potency was inconclusive: 56.2 µM [inhibitor, partial curve, poor fit].
With `CC(C)Oc1cccc(-c2nc(C(=O)N(C)Cc3ccccc3)cs2)c1` the Potency was inconclusive: 50.1 µM [inhibitor, partial curve, poor fit].
For `COCC(=O)NC[C@H]1Cn2c(-c3ccc(Cl)cc3)cnc2CO1`, the Potency was inconclusive: 70.8 µM [inhibitor, partial curve, poor fit].
In the case of `O=C1c2c(nc(CNc3nccs3)n2Cc2ccccc2)NCCN1Cc1ccccc1F`, the Potency is reported as inconclusive: 44.7 µM [inhibitor, partial curve, poor fit].
With `CCCOC(=O)N1CCC(C(=O)Nc2cccc(-c3cccc(F)c3)c2)CC1` the Potency was inconclusive: 56.2 µM [inhibitor, partial curve, poor fit].
In the case of `O=C(c1ccsc1)N1CCCN(c2cc(-c3ccc(Cl)cc3)[nH]n2)CC1`, the Potency is reported as inconclusive: 44.7 µM [inhibitor, partial curve, poor fit].
In the case of `Cn1nc(C2CC2)n(C2CCN(C(=O)CC3CCCC3)CC2)c1=O`, the Potency is reported as “inactive”.
With `O=c1[nH]c(C2CCN(Cc3ccc(-c4cccnc4)cc3)CC2)nc2ccc(F)cc12` the Potency was active: 5.62 µM and inconclusive: 5.62 µM [inhibitor, full curve, poor fit].
For `O=C(CCC1CCCN(Cc2cc3c(cc2Cl)OCO3)C1)Nc1ccccc1F` (stereo unspecified), the Potency was inconclusive: 44.7 µM [inhibitor, partial curve, poor fit].
With `Cc1ccc(NC(=O)C2CCN(c3cc(C(F)(F)F)ncn3)CC2)cc1` the Potency was inconclusive: 11.2 µM [inhibitor, full curve].
For `O=C1CN(Cc2ccc(-c3ccsc3)cc2)CCN1c1ccc(Cl)nn1`, the Potency was inconclusive: 44.7 µM [inhibitor, partial curve, poor fit].
In the case of `CCC[C@H]1CN(Cc2c(C)noc2C)C[C@@H]1NC(=O)CN(C)C(N)=O`, the Potency is reported as “inactive”.
For `COc1cccc(-c2cc(C3CCN(S(=O)(=O)c4ccc(F)cc4F)CC3)[nH]n2)c1`, the Potency was inconclusive: 31.6 µM [inhibitor, full curve, poor fit].
In the case of `COc1ccc(C(=O)N2C[C@@H](CO)[C@H](c3ccncc3)C2)cc1F`, the Potency is reported as “inactive”.
In the case of `Cc1ccc(C(=O)N2CCC(C(=O)N3CCCC(c4nc5ncccc5[nH]4)C3)CC2)cc1` (stereo unspecified), the Potency is reported as “inactive”.
With `Cc1nn(-c2ccc(F)cc2)c(Oc2ccc(F)cc2F)c1CCC(=O)N(C)C(C)C` the Potency was inconclusive: 44.7 µM [inhibitor, partial curve, poor fit].
With `O=C(NCCc1ccccc1)[C@@H]1C[C@@H](c2ccc(F)cc2)N([S+](=O)([O-])c2ccccc2)C1` the Potency was inconclusive: 50.1 µM [inhibitor, partial curve, poor fit].
With `COc1ccc(-n2nc(C)c([C@@H]3C=C[C@@H](NC(=O)NCc4ccccc4)C3)c2C)cc1` the Potency was inconclusive: 56.2 µM [inhibitor, partial curve, poor fit].
In the case of `O=C(NC1CCN(c2cc(-c3ccccc3)[nH]n2)CC1)C1CCCCC1`, the Potency is reported as “inactive”.
With `COc1ccc(C(=O)N2CC(Oc3ccc(F)cc3C)C2)cc1` the Potency was inconclusive: 44.7 µM [inhibitor, partial curve, poor fit].
With `O=C1c2c(nc(CNc3ccc(F)cc3)n2Cc2ccccc2)NCCN1CC1CC1` the Potency was inconclusive: 89.1 µM [inhibitor, partial curve, poor fit].
With `Cc1ccc(Nc2ccnc(N3CCC(NC(=O)c4ccc(Cl)cc4)CC3)n2)cc1` the Potency was active: 31.6 µM.
Potency is read from the fitted curve at half-maximal effect; tags tell the direction and shape of the fitted curve.
